Results published in the supplement of paper PMC8728848.
Some of the results follow.

Tests used:
Experiment in all cases: glycan array binding signal (z-score within array); higher = stronger binding
Details in all cases: glycan notation: IUPAC condensed, linker removed
GlcNAc(b1-3)Gal(b1-4)Glc = molecular target: GlcNAc(b1-3)Gal(b1-4)Glc
In short: (§1)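 Arrays were curated from the Consortium for Functional Glycomics database, 3228 in total, and kept only where the protein sequence was available. Binding is expressed as a within-array Z-score. This score was averaged across arrays of the same protein sequence at different concentrations or buffers and across linkers, and negative values can be read as non-binding.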

[1] = molecular target: GlcNAc(b1-3)Gal(b1-4)GlcNAc
In short: as §1

[2] = molecular target: GlcNAc(b1-3)Gal(b1-4)GlcNAc(b1-2)Man(a1-3)[GlcNAc(b1-3)Gal(b1-4)GlcNAc(b1-2)Man(a1-6)]Man(b1-4)GlcNAc(b1-4)GlcNAc
In short: as §1

[3] = molecular target: GlcNAc(b1-3)Gal(b1-4)GlcNAc(b1-2)Man(a1-3)[GlcNAc(b1-3)Gal(b1-4)GlcNAc(b1-2)Man(a1-6)]Man(b1-4)GlcNAc(b1-4)[Fuc(a1-6)]GlcNAc
In short: as §1

[4] = molecular target: GlcNAc(b1-3)Gal(b1-4)GlcNAc(b1-2)[GlcNAc(b1-3)Gal(b1-4)GlcNAc(b1-6)]Man(a1-6)[GlcNAc(b1-3)Gal(b1-4)GlcNAc(b1-2)Man(a1-3)]Man(b1-4)GlcNAc(b1-4)GlcNAc
In short: as §1

[5] = molecular target: GlcNAc(b1-3)Gal(b1-4)GlcNAc(b1-3)Gal(b1-4)GlcNAc
In short: as §1

[6] = molecular target: GlcNAc(b1-3)Gal(b1-4)GlcNAc(b1-3)Gal(b1-4)GlcNAc(b1-2)Man(a1-3)[GlcNAc(b1-3)Gal(b1-4)GlcNAc(b1-3)Gal(b1-4)GlcNAc(b1-2)Man(a1-6)]Man(b1-4)GlcNAc(b1-4)GlcNAc
In short: as §1

[7] = molecular target: GlcNAc(b1-3)Gal(b1-4)GlcNAc(b1-3)Gal(b1-4)GlcNAc(b1-2)Man(a1-3)[GlcNAc(b1-3)Gal(b1-4)GlcNAc(b1-3)Gal(b1-4)GlcNAc(b1-2)Man(a1-6)]Man(b1-4)GlcNAc(b1-4)[Fuc(a1-6)]GlcNAc
In short: as §1

[8] = molecular target: GlcNAc(b1-3)Gal(b1-4)GlcNAc(b1-3)Gal(b1-4)GlcNAc(b1-2)[GlcNAc(b1-3)Gal(b1-4)GlcNAc(b1-3)Gal(b1-4)GlcNAc(b1-6)]Man(a1-6)[GlcNAc(b1-3)Gal(b1-4)GlcNAc(b1-3)Gal(b1-4)GlcNAc(b1-2)Man(a1-3)]Man(b1-4)GlcNAc(b1-4)[Fuc(a1-6)]GlcNAc
In short: as §1

[9] = molecular target: GlcNAc(b1-3)Gal(b1-4)GlcNAc(b1-3)Gal(b1-4)GlcNAc(b1-3)Gal(b1-4)GlcNAc(b1-2)Man(a1-3)[GlcNAc(b1-3)Gal(b1-4)GlcNAc(b1-3)Gal(b1-4)GlcNAc(b1-3)Gal(b1-4)GlcNAc(b1-2)Man(a1-6)]Man(b1-4)GlcNAc(b1-4)GlcNAc
In short: as §1

[10] = molecular target: GlcNAc(b1-3)Gal(b1-4)GlcNAc(b1-3)Gal(b1-4)GlcNAc(b1-3)Gal(b1-4)GlcNAc(b1-2)Man(a1-3)[GlcNAc(b1-3)Gal(b1-4)GlcNAc(b1-3)Gal(b1-4)GlcNAc(b1-3)Gal(b1-4)GlcNAc(b1-2)Man(a1-6)]Man(b1-4)GlcNAc(b1-4)[Fuc(a1-6)]GlcNAc
In short: as §1

[11] = molecular target: GlcNAc(b1-3)Gal(b1-4)GlcNAc(b1-3)Gal(b1-4)GlcNAc(b1-3)Gal(b1-4)GlcNAc(b1-2)[GlcNAc(b1-3)Gal(b1-4)GlcNAc(b1-3)Gal(b1-4)GlcNAc(b1-3)Gal(b1-4)GlcNAc(b1-6)]Man(a1-6)[GlcNAc(b1-3)Gal(b1-4)GlcNAc(b1-3)Gal(b1-4)GlcNAc(b1-3)Gal(b1-4)GlcNAc(b1-2)Man(a1-3)]Man(b1-4)GlcNAc(b1-4)[Fuc(a1-6)]GlcNAc
In short: as §1

[12] = molecular target: GlcNAc(b1-3)Gal(b1-4)GlcNAc(b1-3)Gal(b1-4)GlcNAc(b1-3)Gal(b1-4)GlcNAc(b1-3)Gal(b1-4)GlcNAc(b1-2)Man(a1-3)[GlcNAc(b1-3)Gal(b1-4)GlcNAc(b1-3)Gal(b1-4)GlcNAc(b1-3)Gal(b1-4)GlcNAc(b1-3)Gal(b1-4)GlcNAc(b1-2)Man(a1-6)]Man(b1-4)GlcNAc(b1-4)GlcNAc
In short: as §1

[13] = molecular target: GlcNAc(b1-3)Gal(b1-4)GlcNAc(b1-3)Gal(b1-4)GlcNAc(b1-3)Gal(b1-4)GlcNAc(b1-3)Gal(b1-4)GlcNAc(b1-2)Man(a1-3)[GlcNAc(b1-3)Gal(b1-4)GlcNAc(b1-3)Gal(b1-4)GlcNAc(b1-3)Gal(b1-4)GlcNAc(b1-3)Gal(b1-4)GlcNAc(b1-2)Man(a1-6)]Man(b1-4)GlcNAc(b1-4)[Fuc(a1-6)]GlcNAc
In short: as §1

[14] = molecular target: GlcNAc(b1-3)Gal(b1-4)GlcNAc(b1-3)Gal(b1-4)GlcNAc(b1-3)Gal(b1-4)GlcNAc(b1-3)Gal(b1-4)GlcNAc(b1-2)[GlcNAc(b1-3)Gal(b1-4)GlcNAc(b1-3)Gal(b1-4)GlcNAc(b1-3)Gal(b1-4)GlcNAc(b1-3)Gal(b1-4)GlcNAc(b1-6)]Man(a1-6)[GlcNAc(b1-3)Gal(b1-4)GlcNAc(b1-3)Gal(b1-4)GlcNAc(b1-3)Gal(b1-4)GlcNAc(b1-3)Gal(b1-4)GlcNAc(b1-2)Man(a1-3)]Man(b1-4)GlcNAc(b1-4)[Fuc(a1-6)]GlcNAc
In short: as §1

[15] = molecular target: GlcNAc(b1-3)Gal(b1-4)GlcNAc(b1-3)Gal(b1-4)GlcNAc(b1-3)GalNAc
In short: as §1

[16] = molecular target: GlcNAc(b1-3)Gal(b1-4)GlcNAc(b1-3)GalNAc
In short: as §1

[17] = molecular target: GlcNAc(b1-3)Gal(b1-4)GlcNAc(b1-3)[GlcNAc(b1-3)Gal(b1-4)GlcNAc(b1-3)]GalNAc
In short: as §1

[18] = molecular target: GlcNAc(b1-3)Gal(b1-4)GlcNAc(b1-6)[Gal(b1-3)]GalNAc
In short: as §1

[19] = molecular target: GlcNAc(b1-3)Gal(b1-4)GlcNAc(b1-6)[GlcNAc(b1-3)Gal(b1-3)]GalNAc
In short: as §1

[20] = molecular target: GlcNAc(b1-3)Gal(b1-4)GlcNAc(b1-6)[GlcNAc(b1-3)]Gal(b1-4)GlcNAc
In short: as §1

GlcNAc(b1-3)GalNAc = molecular target: GlcNAc(b1-3)GalNAc
In short: as §1

GlcNAc(b1-3)Man = molecular target: GlcNAc(b1-3)Man
In short: as §1

[21] = molecular target: GlcNAc(b1-3)[GlcNAc(b1-4)][GlcNAc(b1-6)]GlcNAc
In short: as §1

[22] = molecular target: GlcNAc(b1-3)[GlcNAc(b1-6)]Gal(b1-4)GlcNAc
In short: as §1

[23] = molecular target: GlcNAc(b1-3)[GlcNAc(b1-6)]GalNAc
In short: as §1

[24] = molecular target: GlcNAc(b1-4)Gal(b1-4)GlcNAc
In short: as §1

GlcNAc(b1-4)GlcNAc = molecular target: GlcNAc(b1-4)GlcNAc
In short: as §1

[25] = molecular target: GlcNAc(b1-4)GlcNAc(b1-4)GlcNAc
In short: as §1

[26] = molecular target: GlcNAc(b1-4)GlcNAc(b1-4)GlcNAc(b1-4)GlcNAc(b1-4)GlcNAc
In short: as §1

[27] = molecular target: GlcNAc(b1-4)GlcNAc(b1-4)GlcNAc(b1-4)GlcNAc(b1-4)GlcNAc(b1-4)GlcNAc
In short: as §1

[28] = molecular target: GlcNAc(b1-4)[GlcNAc(b1-6)]GalNAc
In short: as §1

[29] = molecular target: GlcNAc(b1-6)Gal(b1-4)GlcNAc
In short: as §1

GlcNAc(b1-6)GalNAc = molecular target: GlcNAc(b1-6)GalNAc
In short: as §1

[30] = molecular target: GlcNAc6S(b1-3)Gal(b1-4)GlcNAc
In short: as §1

Kdn(a2-3)Gal(b1-3)GalNAc = molecular target: Kdn(a2-3)Gal(b1-3)GalNAc
In short: as §1

Kdn(a2-3)Gal(b1-3)GlcNAc = molecular target: Kdn(a2-3)Gal(b1-3)GlcNAc
In short: as §1

Kdn(a2-3)Gal(b1-4)Glc = molecular target: Kdn(a2-3)Gal(b1-4)Glc
In short: as §1

Kdn(a2-3)Gal(b1-4)GlcNAc = molecular target: Kdn(a2-3)Gal(b1-4)GlcNAc
In short: as §1

[31] = molecular target: Kdn(a2-3)Gal(b1-4)[Fuc(a1-3)]GlcNAc
In short: as §1

Kdn(a2-6)Gal(b1-4)GlcNAc = molecular target: Kdn(a2-6)Gal(b1-4)GlcNAc
In short: as §1

[32] = molecular target: Man(a1-2)Man(a1-2)Man(a1-3)Man
In short: as §1

[33] = molecular target: Man(a1-2)Man(a1-2)Man(a1-6)[Man(a1-3)]Man
In short: as §1

Man(a1-2)Man(a1-3)Man = molecular target: Man(a1-2)Man(a1-3)Man
In short: as §1

[34] = molecular target: Man(a1-2)Man(a1-3)[Man(a1-2)Man(a1-6)]Man
In short: as §1

B1: PX9937D-bvu-500-26-500 (Bacteroides vulgatus) (protein)
chain: DPVSDITDLNYWKTPEQFDSFVFGLHSRFRSHSWNMFLLGEARSDVFGGIPFGGEATQGMERFPYNTLNAENPGISGFGDLYQNINQMNLFISRTLHTDVLTESARNYYLGQVYGLRAYYMYQLYRSWGDVVFTEEPSLGFEVGKLAKAATPAAEIFEQVKKDIESSLSYFGSDYTIKEKKSLWSKAATLMLKADVYLWSAHRDGGEGDARTAKNALVDIQNNISRSNLDLMDTYQGVFAYDNKGNKEIIFTIHNELFEYNLWNGNNDLFPQADYLGKFYNADGTLINTSVENNFGIMRLMVKLENFKKFLPGDTRRDVTLKDVYNKVENGKLELVGVYPHKYWGVMNGSTRVRCDDYPIYRYSDLLLMLAEAKVLLGEDPATEINRVRRRAFGDAYDASTVGFPNQEVDKRPADAVLQERLFEFMLEGKRWYDLRRFGDSYVLDYTPAEPARLLWPINQGALTNNPLLKQTVGY
glycan array binding signal (z-score) (GlcNAc(b1-3)Gal(b1-4)Glc): -0.124
glycan array binding signal (z-score) [1]: -0.346
glycan array binding signal (z-score) [2]: -0.442
glycan array binding signal (z-score) [3]: 0.076
glycan array binding signal (z-score) [4]: 0.423
glycan array binding signal (z-score) [5]: -0.558
glycan array binding signal (z-score) [6]: 0.434
glycan array binding signal (z-score) [7]: 0.256
glycan array binding signal (z-score) [8]: 0.138
glycan array binding signal (z-score) [9]: -0.173
glycan array binding signal (z-score) [10]: 0.12
glycan array binding signal (z-score) [11]: 0.224
glycan array binding signal (z-score) [12]: 0.126
glycan array binding signal (z-score) [13]: -0.298
glycan array binding signal (z-score) [14]: 1
glycan array binding signal (z-score) [15]: -0.353
glycan array binding signal (z-score) [16]: -0.366
glycan array binding signal (z-score) [17]: -0.076
glycan array binding signal (z-score) [18]: -0.099
glycan array binding signal (z-score) [19]: 0.114
glycan array binding signal (z-score) [20]: -0.546
glycan array binding signal (z-score) (GlcNAc(b1-3)GalNAc): -0.619
glycan array binding signal (z-score) (GlcNAc(b1-3)Man): -0.094
glycan array binding signal (z-score) [21]: -0.479
glycan array binding signal (z-score) [22]: 0.311
glycan array binding signal (z-score) [23]: -0.506
glycan array binding signal (z-score) [24]: -0.229
glycan array binding signal (z-score) (GlcNAc(b1-4)GlcNAc): 0.201
glycan array binding signal (z-score) [25]: -0.41
glycan array binding signal (z-score) [26]: -0.558
glycan array binding signal (z-score) [27]: -0.379
glycan array binding signal (z-score) [28]: -0.387
glycan array binding signal (z-score) [29]: 0.08
glycan array binding signal (z-score) (GlcNAc(b1-6)GalNAc): 0.455
glycan array binding signal (z-score) [30]: -0.75
glycan array binding signal (z-score) (Kdn(a2-3)Gal(b1-3)GalNAc): -0.333
glycan array binding signal (z-score) (Kdn(a2-3)Gal(b1-3)GlcNAc): -0.12
glycan array binding signal (z-score) (Kdn(a2-3)Gal(b1-4)Glc): -0.224
glycan array binding signal (z-score) (Kdn(a2-3)Gal(b1-4)GlcNAc): -0.408
glycan array binding signal (z-score) [31]: -0.237
glycan array binding signal (z-score) (Kdn(a2-6)Gal(b1-4)GlcNAc): -0.492
glycan array binding signal (z-score) [32]: -0.497
glycan array binding signal (z-score) [33]: -0.576
glycan array binding signal (z-score) (Man(a1-2)Man(a1-3)Man): -0.696
glycan array binding signal (z-score) [34]: -0.532
